Test results taken from PubChem BioAssay (NCI).
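Growth conditions: 96-well plates. Treatment: test compound, 48 hours, 5 concentrations. Analysis: linear interpolation between bracketing concentrations; unreached endpoints set to highest concentration. At the GI50, growth is halved. TGI is the concentration that stops growth completely.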

Tested on: NCI-H322M lung
Assay: growth of human tumour cells (NCI), 48 h

Row | SMILES | TGI [µM] | GI50 [µM]
1 | CCCCCCCCCCCC(=O)Oc1c(Cl)cc(Cl)c(OC(=O)C(=O)Oc2c(Cl)cc(Cl)c(OC(=O)CCCCCCCCCCC)c2Cl)c1Cl | > 100 | 
2 | COc1cccc(-c2c(C#N)c(N)nc3c2CCS(=O)(=O)c2ccc(C)cc2-3)c1 | > 100 | 
3 | CCCC(=O)OC1C(C(O)CO)OC2OC(C)(C)OC21 (configuration not stated) | > 100 | 
4 | S=c1sc2c(s1)SCCCCSCCCCSc1sc(=S)sc1SCCCCSCCCCS2 | > 100 | 
5 | Cc1nc2cccc(F)c2c(=O)n1C1CCCCNC1=O (configuration not stated) | > 10 | 
6 | CCOC(=O)CSc1nc(N)c2c(-c3ccc(OC)c(OC)c3)c3c(nc2n1)CCCC3 | > 100 | 
7 | O=C(N/N=C(/c1ccccc1)C(F)(F)F)c1ccncc1 | > 100 | 
8 | CC1=C(C(=O)O)N2C(=O)[C@@H](NC(=O)C(c3ccc(O)cc3)N3CSC(=S)N(C(C)C)C3)C2SC1 (some centres not stated) | > 100 | 
9 | CCOC(=O)c1cc(NS(=O)(=O)c2ccccc2)cc(C(=O)OCC)c1 | > 100 | > 100
10 | CCCc1[nH]c(SCCCCCCCCSc2nc(-c3ccc(F)cc3)c(CCC)[nH]2)nc1-c1ccc(F)cc1 | > 100 | 
11 | C=CCOc1ccc(/C(N=Nc2ccc([N+](=O)[O-])cc2)=N/NC(=O)c2ccccc2)cc1OC | > 100 | 
12 | CCOc1ccc(NC(=O)C(=O)CC(=O)C2=C(C)Nc3ccccc3S2)cc1 | > 50 | 
13 | CCCNC1=C(C(=O)OCC)C(=O)CO1 | > 100 | 
14 | COCCN(C(C)=O)C1CCC2(SCCS2)c2[nH]c3ccccc3c21 (configuration not stated) | > 100 | 
15 | COC12OC3(C4OC41)C(C(=O)O[C@H]3CO[Si](C)(C)C(C)(C)C)C2C(=O)Oc1ccccc1 (some centres not stated) | > 100 | 
16 | NNC(=O)/C(=C/c1ccc(Cl)cc1Cl)NC(=O)c1ccccc1 | > 100 | 
17 | CCc1ccccc1NC(=O)C(=O)CC(=O)c1sc(Nc2ccccc2)nc1C | > 100 | 
18 | Nc1ccccc1C#C/C=C\C#Cc1cccs1 | 39.2 | 13
19 | NCCn1c(=O)[nH]c(=O)[nH]c1=S | > 100 | > 100
20 | Cc1ccc(N=Nc2c(O)c(C(=O)O)cc3ccccc23)cc1C | > 100 | 
21 | CCN(CC)c1ccc(C(=O)c2ccccc2C(=O)O)c(O)c1 | > 100 | 
22 | CCOC(=O)c1nc2ccc(Cl)cc2c2c1Cc1ccccc1-2 | > 100 | 
23 | CSc1ccc(C2OC(=O)c3ccccc32)c2ccccc12 (configuration not stated) | > 100 | 
24 | COc1cccc(N=Cc2cc3cc(Br)ccc3nc2Cl)c1 | > 50 | 
25 | COc1cc(C(=O)C/C(CCCC(=O)Nc2ccccc2[N+](=O)[O-])=N/NC(=O)c2cc3ccccc3cc2O)ccc1O | > 100 | 

Row | SMILES | TGI [µM] | GI50 [µM]
26 | COc1ccc(OC)c(/C=C2\SC(=S)NC2=O)c1 | 92.7 | 36.3
27 | C=CCOc1cccc(/C=C2\SC(=Nc3ccc(O)cc3)NC2=O)c1 | 46.6 | 4.64
28 | COc1ccc2c(c1)/C(=C\c1c(C)nc3sccn13)C(=O)N2 | > 100 | 1.7
29 | O=c1cc(-c2ccccc2)[nH]c2ccccc12 | > 100 | 
30 | O=C(O)/C=C\C(=O)N1C/C(=C\c2ccccc2Cl)C(=O)/C(=C/c2ccccc2Cl)C1 | 15.6 | 4.3
31 | O=C(CCCCCCC(=O)Nc1ccc(N(CCCl)CCCl)cc1)NO | 20.7 | 3.23
32 | C=CCOc1ccc(/C(N=Nc2ccc(Cl)cc2)=N/NC(=O)c2ccccc2)cc1OC | > 100 | 
33 | O=C(/C=C/c1ccccc1)/C=N/N1C(=S)N(c2ccccc2)C(=Nc2ccccc2)C1=Nc1ccccc1 | > 100 | 
34 | CC(C)c1cc(-c2n[nH]c(=O)n2-c2ccc3c(ccn3C)c2)c(O)cc1O | 99.5 | 5.26
35 | CCOC(=O)C(=[N+]=[N-])C(=O)C1(C(=O)OCC)CCN(C(=O)c2ccccc2)C1=O (configuration not stated) | > 100 | 
36 | O=S(=O)(O)c1ccc(O)c2ncc(Cl)cc12 | > 100 | 
37 | CCCCCCCCN=C(N)c1ccc(N2CCN(c3ccc(C(N)=NCCCCCCCC)cc3)CC2)cc1 | 4.33 | 1.44
38 | Cn1cc(-c2ccc3occ(-c4cccc(-c5ccncc5)c4)c3n2)cn1 | > 100 | 2.41
39 | COc1ccc(-c2ccc(/C=N/n3c(COc4ccc(Cl)cc4Cl)nn(CN4CCOCC4)c3=S)o2)c([N+](=O)[O-])c1 | 78.3 | 25.1
40 | Cc1cccc2nc3c(C(=O)NCCN(C)C)cccc3cc12 | 4.66 | 
41 | CC1SC(c2ccccc2)N(CCc2cccs2)C1=O (configuration not stated) | 29.5 | 9.01
42 | Cn1c(=S)[nH]c2sc3c(c2c1=O)CCSC3 | > 100 | 
43 | O=Nc1c(O)cc(Nc2ccc(Br)cc2)c2ccccc12 | 3.86 | 
44 | O=C(C1OC1c1ccc(O)cc1)C12CC3CC(CC(C3)C1)C2 (configuration not stated) | > 100 | 
45 | O=C1C=C2C(=NC34CCCCC3C(c3ccccc3)C3=C(c5ccccc5CC3)N24)c2ccccc21 (configuration not stated) | > 10 | 
46 | O=c1cc(NNc2ccccc2)[nH]c(=S)[nH]1 | > 100 | 
47 | O=C(COc1ccc2c(=O)cc(-c3ccccc3)oc2c1)N1CCN(c2ccccc2)CC1 | > 100 | 
48 | NC1C[C@H](n2cc(/C=C/Br)c(=O)[nH]c2=O)C[C@@H]1CO (some centres not stated) | > 100 | 
49 | NC(=O)N/N=C1\CCCCc2ccccc21 | > 10 | 
